Reference: the supplement of paper PMC12217912
The other results are listed elsewhere or left out. The full chains were built here from the parent and the listed change. Values near 0.05 are background.

B1: TEV protease; numbered along this chain (parent)
chain: MGESLFKGPRDYNPISSSICHLTNESDGHTTSLYGIGFGPFIITNKHLFRRNNGTLVVQSLHGVFKVKDTTTLQQHLVDGRDMIIIRMPKDFPPFPQKLKFREPQREERICLVTTNFQTKSMSSMVSDTSCTFPSGDGIFWKHWIQTKDGQCGSPLVSTRDGFIVGIHSASNFTNTNNYFTSVPKNFMELLTNQEAQQWVSGWRLNADSVLWGGHKVFMVKPEEPFQPVKEATQL

Variants of: B1
Assay: raw area under fraction-flipped curve 0-4 h after induction (AUC4h, not background-subtracted), DNA-recorder readout of cleavage of the substrate (dimensionless); higher = more cleavage of the substrate by the protease variant
Conditions: temperature: 34 °C; time window: 0-4 h after rhamnose induction
Method: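 In vivo DNA recorder in E. coli TOP10(DE3) ΔrhaA at 34 °C. Each TEVp single-site mutant (parent TEVp 0) is paired with a single-site variant of the 7-mer TEVs (canonical ENLYFQ|S). The substrate sits between flexible linkers in a Bxb1-sfGFP-TEVs-SsrA fusion, so cleavage stabilises Bxb1 and speeds flipping of a recombination array, read by NGS. The value is the raw area under the fraction-flipped curve over 0-4 h after rhamnose induction (AUC4h), with ≥20 reads per time point. It is not background-subtracted; inactive controls average about 0.047.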
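Also: Bxb1 expression induced with 0.2% (w/v) L-rhamnose at OD600 near 0.5, cultures sampled hourly, flipped fraction per protease–substrate barcode pair counted by paired-end Illumina sequencing.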

M122W
area with substrate ENLYFAS: 0.0561
area with substrate ENLYFCS: 0.0543
area with substrate ENLYFDS: 0.0609
area with substrate ENLYFES: 0.0619
area with substrate ENLYFFS: 0.0534
area with substrate ENLYFIS: 0.0572
area with substrate ENLYFKS: 0.0659
area with substrate ENLYFLS: 0.0688
area with substrate ENLYFMS: 0.0543
area with substrate ENLYFPS: 0.0578
area with substrate ENLYFTS: 0.043
area with substrate ENLYFVS: 0.0442
area with substrate ENLYFWS: 0.0543
area with substrate ENLYFYS: 0.0616

M122L
area with substrate ENLYFAS: 0.0698
area with substrate ENLYFCS: 0.0693
area with substrate ENLYFDS: 0.0538
area with substrate ENLYFES: 0.0792
area with substrate ENLYFGS: 0.0469
area with substrate ENLYFHS: 0.0573
area with substrate ENLYFIS: 0.0726
area with substrate ENLYFKS: 0.0645
area with substrate ENLYFMS: 0.0777
area with substrate ENLYFRS: 0.0583
area with substrate ENLYFTS: 0.0614

S121V
area with substrate ENLYFAS: 0.0291
area with substrate ENLYFCS: 0.0655
area with substrate ENLYFFS: 0.0694
area with substrate ENLYFGS: 0.0576
area with substrate ENLYFHS: 0.0532
area with substrate ENLYFIS: 0.0592
area with substrate ENLYFLS: 0.0658
area with substrate ENLYFPS: 0.0482
area with substrate ENLYFRS: 0.0552
area with substrate ENLYFSS: 0.0664
area with substrate ENLYFTS: 0.0474
area with substrate ENLYFWS: 0.0592
area with substrate ENLYFYS: 0.0507

S121D
area with substrate ENLYFAS: 0.0641
area with substrate ENLYFES: 0.0652
area with substrate ENLYFFS: 0.0639
area with substrate ENLYFHS: 0.0504
area with substrate ENLYFIS: 0.0582
area with substrate ENLYFKS: 0.0643
area with substrate ENLYFLS: 0.0671
area with substrate ENLYFMS: 0.0693
area with substrate ENLYFNS: 0.0647
area with substrate ENLYFPS: 0.0665
area with substrate ENLYFRS: 0.055
area with substrate ENLYFSS: 0.0305
area with substrate ENLYFTS: 0.0553
area with substrate ENLYFWS: 0.0592
area with substrate ENLYFYS: 0.0567

S121L
area with substrate ENLYFAS: 0.0638
area with substrate ENLYFDS: 0.0706
area with substrate ENLYFES: 0.0653
area with substrate ENLYFFS: 0.0704
area with substrate ENLYFHS: 0.0459
area with substrate ENLYFIS: 0.0562
area with substrate ENLYFKS: 0.07
area with substrate ENLYFLS: 0.0711
area with substrate ENLYFMS: 0.0721
area with substrate ENLYFNS: 0.0592
area with substrate ENLYFPS: 0.0602
area with substrate ENLYFRS: 0.0521
area with substrate ENLYFSS: 0.0638
area with substrate ENLYFVS: 0.0527
area with substrate ENLYFWS: 0.0402
area with substrate ENLYFYS: 0.0713

T159L
area with substrate ENLYFAS: 0.051
area with substrate ENLYFCS: 0.0542
area with substrate ENLYFES: 0.0669
area with substrate ENLYFFS: 0.0782
area with substrate ENLYFGS: 0.0574
area with substrate ENLYFIS: 0.056
area with substrate ENLYFKS: 0.0593
area with substrate ENLYFLS: 0.0181
area with substrate ENLYFMS: 0.0575
area with substrate ENLYFNS: 0.0755
area with substrate ENLYFPS: 0.068
area with substrate ENLYFRS: 0.0384
area with substrate ENLYFTS: 0.0554
area with substrate ENLYFWS: 0.0713
area with substrate ENLYFYS: 0.0527

I145Y
area with substrate ENLYFAS: 0.049
area with substrate ENLYFDS: 0.068
area with substrate ENLYFES: 0.0632
area with substrate ENLYFFS: 0.0581
area with substrate ENLYFGS: 0.073
area with substrate ENLYFHS: 0.0595
area with substrate ENLYFIS: 0.0515
area with substrate ENLYFLS: 0.0589
area with substrate ENLYFNS: 0.0618
area with substrate ENLYFPS: 0.0624
area with substrate ENLYFSS: 0.0595
area with substrate ENLYFTS: 0.0555
area with substrate ENLYFVS: 0.0812
area with substrate ENLYFWS: 0.0766
area with substrate ENLYFYS: 0.0591

D137K
area with substrate ENLYFAS: 0.0568
area with substrate ENLYFDS: 0.0768
area with substrate ENLYFFS: 0.0594
area with substrate ENLYFGS: 0.0607
area with substrate ENLYFHS: 0.0652
area with substrate ENLYFIS: 0.0641
area with substrate ENLYFMS: 0.0633
area with substrate ENLYFRS: 0.0307
area with substrate ENLYFSS: 0.0471
area with substrate ENLYFTS: 0.0595
area with substrate ENLYFWS: 0.0546
area with substrate ENLYFYS: 0.062

D137C
area with substrate ENLYFAS: 0.0607
area with substrate ENLYFES: 0.0716
area with substrate ENLYFFS: 0.0713
area with substrate ENLYFHS: 0.08
area with substrate ENLYFKS: 0.0676
area with substrate ENLYFLS: 0.0831
area with substrate ENLYFPS: 0.0681
area with substrate ENLYFTS: 0.0591

H143K
area with substrate ENLYFAS: 0.0599
area with substrate ENLYFCS: 0.0527
area with substrate ENLYFDS: 0.0553
area with substrate ENLYFES: 0.057
area with substrate ENLYFFS: 0.0653
area with substrate ENLYFHS: 0.055
area with substrate ENLYFIS: 0.0513
area with substrate ENLYFKS: 0.0581
area with substrate ENLYFLS: 0.0529
area with substrate ENLYFMS: 0.0619
area with substrate ENLYFNS: 0.0574
area with substrate ENLYFPS: 0.0618
area with substrate ENLYFRS: 0.0467
area with substrate ENLYFSS: 0.0494
area with substrate ENLYFTS: 0.0613

H143W
area with substrate ENLYFAS: 0.0377
area with substrate ENLYFDS: 0.0583
area with substrate ENLYFES: 0.0592
area with substrate ENLYFGS: 0.0514
area with substrate ENLYFHS: 0.0531
area with substrate ENLYFIS: 0.0652
area with substrate ENLYFKS: 0.0604
area with substrate ENLYFLS: 0.0585
area with substrate ENLYFMS: 0.0618
area with substrate ENLYFNS: 0.0561
area with substrate ENLYFPS: 0.0628
area with substrate ENLYFRS: 0.053
area with substrate ENLYFSS: 0.0594
area with substrate ENLYFTS: 0.0503
area with substrate ENLYFVS: 0.0534
area with substrate ENLYFWS: 0.0514
area with substrate ENLYFYS: 0.0684

S154G
area with substrate ENLYFAS: 0.0614
area with substrate ENLYFCS: 0.0586
area with substrate ENLYFDS: 0.063
area with substrate ENLYFIS: 0.047
area with substrate ENLYFLS: 0.0686
area with substrate ENLYFMS: 0.0481
area with substrate ENLYFNS: 0.0577
area with substrate ENLYFPS: 0.0684
area with substrate ENLYFRS: 0.0669
area with substrate ENLYFSS: 0.0646
area with substrate ENLYFTS: 0.0572
area with substrate ENLYFVS: 0.069
area with substrate ENLYFYS: 0.0281
